For 31 molecules, binding signal results are on record in article PMC9911399, “Two distinct binding modes provide the RNA-binding protein RbFox with extraordinary sequence specificity”.

Where a chain is given by its changes, count along the chain named. This is one part of the list.

First the molecules themselves.
T1: RBFOX1 RRM (Homo sapiens, UniProt Q9NWB1 109-208)
T1 sequence: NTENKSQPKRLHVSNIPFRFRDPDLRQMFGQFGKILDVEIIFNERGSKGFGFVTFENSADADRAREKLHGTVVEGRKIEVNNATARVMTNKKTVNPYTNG

B1: ACUCUGA (DNA:RNA)
RNA: GGGAGACCGGAAUUCAGAUUGUCCACUCUGAUUAAAUCCCGUCGUAGCCACCA
DNA 1: CAATCTGAATTCCGGTCTCCC
DNA 2: TGGTGGCTACGACGGGATT
B2: CCGAAGG (DNA:RNA)
RNA: B1 RNA with A25C, U27G, C28A, U29A, A31G
DNA 1: CAATCTGAATTCCGGTCTCCC
DNA 2: TGGTGGCTACGACGGGATT
B3: UGGUUGG (DNA:RNA)
RNA: B1 RNA with A25U, C26G, U27G, C28U, A31G
DNA 1: CAATCTGAATTCCGGTCTCCC
DNA 2: TGGTGGCTACGACGGGATT
B4: GUAACCU (DNA:RNA)
RNA: GGGAGACCGGAAUUCAGAUUGUCCGUAACCUUUAAAUCCCGUCGUAGCCACCA
DNA 1: CAATCTGAATTCCGGTCTCCC
DNA 2: TGGTGGCTACGACGGGATT
B5: UCUCCUU (DNA:RNA)
RNA: B1 RNA with A25U, U29C, G30U, A31U
DNA 1: CAATCTGAATTCCGGTCTCCC
DNA 2: TGGTGGCTACGACGGGATT
B6: CUACGCG (DNA:RNA)
RNA: B4 RNA with G25C, A28C, C29G, U31G
DNA 1: CAATCTGAATTCCGGTCTCCC
DNA 2: TGGTGGCTACGACGGGATT
B7: CUUCUUU (DNA:RNA)
RNA: B1 RNA with A25C, C26U, G30U, A31U
DNA 1: CAATCTGAATTCCGGTCTCCC
DNA 2: TGGTGGCTACGACGGGATT
B8: GACCUAG (DNA:RNA)
RNA: B1 RNA with A25G, C26A, U27C, G30A, A31G
DNA 1: CAATCTGAATTCCGGTCTCCC
DNA 2: TGGTGGCTACGACGGGATT
B9: UAAGGGA (DNA:RNA)
RNA: B1 RNA with A25U, C26A, U27A, C28G, U29G
DNA 1: CAATCTGAATTCCGGTCTCCC
DNA 2: TGGTGGCTACGACGGGATT
B10: UCAGGGC (DNA:RNA)
RNA: B1 RNA with A25U, U27A, C28G, U29G, A31C
DNA 1: CAATCTGAATTCCGGTCTCCC
DNA 2: TGGTGGCTACGACGGGATT
B11: CUACGAC (DNA:RNA)
RNA: B4 RNA with G25C, A28C, C29G, C30A, U31C
DNA 1: CAATCTGAATTCCGGTCTCCC
DNA 2: TGGTGGCTACGACGGGATT
B12: GGAUCUC (DNA:RNA)
RNA: B4 RNA with U26G, A28U, C30U, U31C
DNA 1: CAATCTGAATTCCGGTCTCCC
DNA 2: TGGTGGCTACGACGGGATT
B13: AGCCCAC (DNA:RNA)
RNA: B1 RNA with C26G, U27C, U29C, G30A, A31C
DNA 1: CAATCTGAATTCCGGTCTCCC
DNA 2: TGGTGGCTACGACGGGATT
B14: AUUAAGA (DNA:RNA)
RNA: B1 RNA with C26U, C28A, U29A
DNA 1: CAATCTGAATTCCGGTCTCCC
DNA 2: TGGTGGCTACGACGGGATT
B15: AAGGGUG (DNA:RNA)
RNA: B1 RNA with C26A, U27G, C28G, U29G, G30U, A31G
DNA 1: CAATCTGAATTCCGGTCTCCC
DNA 2: TGGTGGCTACGACGGGATT
B16: UCGAUGA (DNA:RNA)
RNA: B1 RNA with A25U, U27G, C28A
DNA 1: CAATCTGAATTCCGGTCTCCC
DNA 2: TGGTGGCTACGACGGGATT
B17: CUGGACA (DNA:RNA)
RNA: B4 RNA with G25C, A27G, A28G, C29A, U31A
DNA 1: CAATCTGAATTCCGGTCTCCC
DNA 2: TGGTGGCTACGACGGGATT
B18: UCUUUCG (DNA:RNA)
RNA: B1 RNA with A25U, C28U, G30C, A31G
DNA 1: CAATCTGAATTCCGGTCTCCC
DNA 2: TGGTGGCTACGACGGGATT
B19: UACGGGA (DNA:RNA)
RNA: B1 RNA with A25U, C26A, U27C, C28G, U29G
DNA 1: CAATCTGAATTCCGGTCTCCC
DNA 2: TGGTGGCTACGACGGGATT
B20: CGUGUUA (DNA:RNA)
RNA: B1 RNA with A25C, C26G, C28G, G30U
DNA 1: CAATCTGAATTCCGGTCTCCC
DNA 2: TGGTGGCTACGACGGGATT
B21: AAUAUAU (DNA:RNA)
RNA: B1 RNA with C26A, C28A, G30A, A31U
DNA 1: CAATCTGAATTCCGGTCTCCC
DNA 2: TGGTGGCTACGACGGGATT
B22: AGGCCGG (DNA:RNA)
RNA: B1 RNA with C26G, U27G, U29C, A31G
DNA 1: CAATCTGAATTCCGGTCTCCC
DNA 2: TGGTGGCTACGACGGGATT
B23: UGCUAAG (DNA:RNA)
RNA: GGGAGACCGGAAUUCAGAUUGUCCUGCUAAGUUAAAUCCCGUCGUAGCCACCA
DNA 1: CAATCTGAATTCCGGTCTCCC
DNA 2: TGGTGGCTACGACGGGATT
B24: CCUCACC (DNA:RNA)
RNA: B1 RNA with A25C, U29A, G30C, A31C
DNA 1: CAATCTGAATTCCGGTCTCCC
DNA 2: TGGTGGCTACGACGGGATT
B25: AUAGUGC (DNA:RNA)
RNA: B1 RNA with C26U, U27A, C28G, A31C
DNA 1: CAATCTGAATTCCGGTCTCCC
DNA 2: TGGTGGCTACGACGGGATT
B26: GUGCGGA (DNA:RNA)
RNA: B1 RNA with A25G, C26U, U27G, U29G
DNA 1: CAATCTGAATTCCGGTCTCCC
DNA 2: TGGTGGCTACGACGGGATT
B27: CGUAAAU (DNA:RNA)
RNA: B23 RNA with U25C, C27U, U28A, G31U
DNA 1: CAATCTGAATTCCGGTCTCCC
DNA 2: TGGTGGCTACGACGGGATT
B28: UACUGUU (DNA:RNA)
RNA: B23 RNA with G26A, A29G, A30U, G31U
DNA 1: CAATCTGAATTCCGGTCTCCC
DNA 2: TGGTGGCTACGACGGGATT
B29: UUAUAAU (DNA:RNA)
RNA: B23 RNA with G26U, C27A, G31U
DNA 1: CAATCTGAATTCCGGTCTCCC
DNA 2: TGGTGGCTACGACGGGATT
B30: GCUCCCG (DNA:RNA)
RNA: B1 RNA with A25G, U29C, G30C, A31G
DNA 1: CAATCTGAATTCCGGTCTCCC
DNA 2: TGGTGGCTACGACGGGATT
B31: CGACUCU (DNA:RNA)
RNA: B4 RNA with G25C, U26G, A28C, C29U
DNA 1: CAATCTGAATTCCGGTCTCCC
DNA 2: TGGTGGCTACGACGGGATT

The test has as its target T1, RBFOX1 RRM. Description: EMSA; HiTS-Eq, 1 nM pool, 10 min; buffer printed only for the single-RNA assays: 10 mM Tris pH 7.5, 150 mM NaCl, 3.4 mM EDTA, 0.001% NP-40, 30 C. The following applies: tags: His6 N-terminal (pET28a); label: 5' 32P. The method, boiled down: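 Purified RbFox RRM, wild type or mutant, was incubated for 10 min in 50 µL with 1 nM of a 5′-radiolabelled RNA pool carrying 7 randomized nucleotides, whose flanks were annealed to DNA oligonucleotides, over a series of increasing protein concentrations. Unbound RNA was resolved on 8% native PAGE, cut out, reverse-transcribed, barcoded by PCR and sequenced on an Illumina HiSeq 2500. Relative association constants were derived from changes in read counts for each RNA species versus the control reaction and normalised to the cognate motif.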
In general terms: In EMSA bound probe runs differently from free probe, usually more slowly.
On to B1, for which the binding signal is 0.0132 KA relative to UGCAUGU.
On to B2, for which the binding signal was 0.0158 KA relative to UGCAUGU.
As to B3, the binding signal was 0.0294 KA relative to UGCAUGU.
Regarding B4, the binding signal is 0.00401 KA relative to UGCAUGU.
Regarding B5, the binding signal is 0.00711 KA relative to UGCAUGU.
With B6, the binding signal is 0.00824 KA relative to UGCAUGU.
Regarding B7, the binding signal is 0.0106 KA relative to UGCAUGU.
As for B8, the binding signal is 0.0112 KA relative to UGCAUGU.
Turning to B9, the binding signal is 0.00419 KA relative to UGCAUGU.
As for B10, the binding signal was 0.00678 KA relative to UGCAUGU.
With B11, the binding signal is 0.00574 KA relative to UGCAUGU.
For B12, the binding signal was 0.0209 KA relative to UGCAUGU.
On to B13, for which the binding signal is 0.00162 KA relative to UGCAUGU.
Regarding B14, the binding signal was 0.00517 KA relative to UGCAUGU.
The result for B15 reads 0.0144 KA relative to UGCAUGU; that for B16, 0.0175 KA relative to UGCAUGU; that for B17, 0.00752 KA relative to UGCAUGU.
Under B18 stands 0.0189 KA relative to UGCAUGU; under B19, 0.00295 KA relative to UGCAUGU; under B20, 0.0105 KA relative to UGCAUGU.
In the case of B21, the binding signal was 0.00146 KA relative to UGCAUGU.
Take B22: the binding signal is 0.00957 KA relative to UGCAUGU.
In the case of B23, the binding signal is 0.0227 KA relative to UGCAUGU.
On to B24, for which the binding signal is 0.0031 KA relative to UGCAUGU.
As for B25, the binding signal is 0.0118 KA relative to UGCAUGU.
For B26, the binding signal is 0.016 KA relative to UGCAUGU.
In the case of B27, the binding signal was 0.0013 KA relative to UGCAUGU.
Take B28: the binding signal was 0.0139 KA relative to UGCAUGU.
The result for B29 reads 0.00452 KA relative to UGCAUGU; that for B30, 0.00379 KA relative to UGCAUGU; that for B31, 0.00984 KA relative to UGCAUGU.
